Experimental data published in article PMC6212790.
This is one part of the list. At the low end of the ranking, values are background and their order means little.

Target: T1, GST-Rok-C97-191 (UniProt O34857)
T1 sequence: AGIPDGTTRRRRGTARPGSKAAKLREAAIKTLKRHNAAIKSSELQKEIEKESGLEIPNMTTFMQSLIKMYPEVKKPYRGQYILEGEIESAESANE
Assay: protein binding microarray;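 note: rank score from −0.5 (least bound) to 0.5 (best bound)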
Conditions: Rok is a gene silencer of Bacillus subtilis; high values mean tight binding; most listed sequences are background and not binding sites; double strand, one strand shown

Sequence | binding signal [E-score]
ATCAGCTA | 0.165
ATTTGATC | 0.158
ACACAAGC | -0.19
ACTGGCCC | -0.175
CCGTAATC | -0.168
CCAATAGA | -0.0604
AAACGAGA | 0.106
AGCCGCCT | -0.284
ATATACCG | 0.384
AGCACTTA | 0.0373
AGTTCTGC | 0.0746
GTGGCTTA | -0.147
GCCACGCC | -0.312
CAGAAGGC | -0.151
AACTACCA | 0.433
AGGCACCT | -0.182
ATCCTAGC | 0.0674
ATCCGATG | 0.0166
CCAGGCTA | -0.0727
CACAGGCG | -0.233
TCGTAACA | -0.0292
CGTGCCGC | -0.266
GGAGAGTA | -0.135
AATCTGCC | 0.0535

Sequence | binding signal [E-score]
ATGCACTC | -0.113
CTTGCTGA | 0.00535
CAAGCGAC | -0.0596
CGAATCCA | -0.0594
CGGCATAG | -0.0893
GCTTCCAC | -0.151
ACGTAAAC | 0.094
AAGCTCCT | -0.203
AGCATGTC | 0.0814
CAGCAGGA | -0.178
ACCGTTTG | -0.0593
ATTTCGTG | 0.107
ATATCCGG | 0.129
AGCGGCGG | -0.182
ATTCGTTA | 0.304
GTGATAAA | 0.22
ACGATGCG | -0.177
CTGCATGA | -0.229
CCTTCGGA | -0.208
GCGGATAC | 0.117
CTTTTGAC | 0.0255
AAGTTAGT | 0.266
AGCCGACT | -0.0753
AAACCCTC | -0.0736

Sequence | binding signal [E-score]
AGTGGAGG | -0.233
AACGAGCT | -0.224
CAATACAG | -0.226
CTCCTCCC | -0.274
CATTTTCA | -0.075
ACGGAGAG | -0.18
CAACTTTA | 0.101
AGATTCCA | -0.0445
CAAACACC | -0.0978
CCTTTACA | 0.0334
GTCGCCAA | -0.125
AAACGTTC | -0.0945
AATTACCT | 0.288
CTCGGTTC | -0.114
CACTCCGC | -0.138
CAGCGTCC | -0.225
CCACCAGA | -0.16
CAACCCAG | -0.157
GATCTTGA | -0.0384
ATTGGTTG | 0.0136
AGAATAGG | -0.081
AGTGCCGC | -0.0284
CCACTTGA | 0.0687
AACGCGAA | 0.00876

Sequence | binding signal [E-score]
CGTATAGC | 0.108
ATCGATTG | 0.0686
CCGGCTTA | -0.145
GGTGATAC | 0.0208
CTGCGCTC | -0.337
AAATAGCT | 0.336
CAGTTTTA | 0.17
CTTATGCC | -0.0842
TGCTCCCA | -0.103
CCGCTCAC | -0.223
AGCACTAC | 0.104
AGTTGTAT | 0.299
CCTTGCTC | -0.189
CTCGACAC | -0.144
ACAGGTAG | 0.1
GTGTTAGA | 0.0835
AAACCAGT | -0.0399
CATCAGAA | -0.0518
TAGTGACA | 0.0704
AACAAAGC | 0.0826
AACGGACC | -0.186
AGAAACCG | -0.049
